# Assay results reported in PubChem BioAssay AID463173 (ICCB-Longwood Screening Facility, Harvard Medical School, 2010).
# Screen size: about 52,000 compounds; about 1,700 (3.3%) were called active. Rule as the data show it: active = survival mostly below about 52% (no sharp cut-off); inactive = mostly above about 56%. This is one part of the list.
# Tested on: Wild type
# Assay: S. aureus survival, RN4220 and DeltatarO strains – OD600, teichoic acid synthesis inhibitors, primary screen (AID 463173)
# Settings: S. aureus RN4220 wild type/DeltatarO growth, OD600, 18 h, stronger effect = lower value, screened at 18.75 µg/mL (by protocol)
row,Compound,survival
1,COc1ccc(-c2nsc3c(N4CCN(S(=O)(=O)c5cccc(F)c5)CC4)ncnc23)cc1,inactive: 104%
2,COCCCN(Cc1ccco1)C(=O)c1cc2c(s1)-c1ccccc1OC2,active: 12%
3,CC(C)Cn1c(=O)c2ccccc2n2c(CCC(=O)N3CCN(c4cccc(Cl)c4)CC3)nnc12,inactive: 72%
4,CC(=O)c1ccc(N2CCN(c3ncnc4c3c(-c3ccccc3)cn4-c3ccc(C)c(Cl)c3)CC2)cc1,inactive: 72%
5,COc1ccc(C(=O)NCCn2cc(SCc3cccc(F)c3)c3ccccc32)cc1OC,inactive: 68%
6,COc1ccccc1CNC(=O)CN1C(=O)CCc2cc(S(=O)(=O)N3CCCCC3)ccc21,inactive: 88%
7,O=C(CSc1nc(-c2cccs2)nc2cc(=O)[nH]n12)Nc1ccccc1,inactive: 89%
8,CCCN(CCC)CCNC(=O)Cn1cnc2sc(C)c(S(=O)(=O)N3CCC(C)CC3)c2c1=O,inactive: 75%
9,CCOC(=O)C1CCN(c2nc3c(S(=O)(=O)c4ccc(Br)cc4)nnn3c3ccsc23)CC1,inactive: 87%
10,FC(F)(F)c1cccc(-n2cc(-c3ccccc3)c3c(N4CCCCC4)ncnc32)c1,inactive: 68%
11,COc1ccc(CCNC(=O)Cn2cc(C(=O)c3ccc(Cl)cc3)c(=O)c3ccc(C)nc32)cc1OC,inactive: 127%
12,CCc1ccc(NC(=O)CC(c2cc(OC)c(OC)c(OC)c2)N2Cc3ccccc3C2=O)cc1 (stereo not drawn),inactive: 71%
13,CCOC(=O)c1cccc(NC(=O)Cn2nc3c(cc2=O)CCCC3)c1,inactive: 32%
14,Cn1c(=O)n(C)c2cc(NS(=O)(=O)c3ccc(F)cc3)c(NCc3ccccc3)cc21,inactive: 72%
15,COCCN1C(=O)c2oc3cc(C)cc(C)c3c(=O)c2C1c1cccc(O)c1 (stereo not drawn),inactive: 79%
16,COc1ccc(CNC(=O)c2cc3c(-c4ccc(Cl)cc4)nn(C)c3s2)cc1,inactive: 123%
17,COc1ccc(S(=O)(=O)N(CCc2ccccc2)CC(=O)NCc2ccccc2)cc1,inactive: 89%
18,Cc1ccc(N2CC(C(=O)NCCS(=O)(=O)N3CCN(c4ccccc4)CC3)CC2=O)cc1 (stereo not drawn),inactive: 73%
19,Cc1c(C(=O)NC(C)c2ccccc2)sc2ncnc(N(C)C3CCCCC3)c12 (stereo not drawn),inactive: 79%
20,Cc1ccc(-c2c(CN3CCN(c4cc(C)ccc4C)CC3)csc2C)cc1,inactive: 102%
21,CCc1c(C)nc2c(C)cccc2c1Cl,inactive: 106%
22,O=S(=O)(Nc1ccc(-c2ccc(N3CCCCC3)nn2)cc1)c1ccc(OC(F)(F)F)cc1,inactive: 72%

row,Compound,survival
1,CCCn1cc(S(=O)(=O)c2cccc(Cl)c2)c(=O)c2cc(F)c(N3CCOCC3)cc21,inactive: 76%
2,CCN(CC)C(=O)CSc1nnc2ccc3ccccc3n12,inactive: 78%
3,CCc1ccccc1NC(=O)CN1C(=O)CCn2nc(-c3cccn3C)cc21,inactive: 55%
4,Cc1nn(-c2ccc(N3CCCCC3)nn2)c(C)c1CCC(=O)NCc1ccc(F)cc1,inactive: 88%
5,COc1ccccc1CNC(=O)Cn1cc2c(n1)-c1c(oc(C(=O)N3CCOCC3)c1C)CC2,inactive: 84%
6,COc1ccc(CC(CN)c2ccccc2)cc1 (stereo not drawn),inactive: 113%
7,COC(=O)c1sccc1S(=O)(=O)N(CC(=O)Nc1cccc(C)c1C)c1ccc(C)c(C)c1,inactive: 69%
8,COc1cc(OC)c(NC(=O)Cn2ncn3c(cc4cc(C)ccc43)c2=O)cc1Cl,inactive: 129%
9,Cc1cccc(NC(=O)CSC2=Nc3ccccc3C3=NC(CCC(=O)NCc4ccco4)C(=O)N23)c1 (stereo not drawn),inactive: 81%
10,CN(C)c1ccc(-c2nnc(SCC3CCCO3)n2C)cc1 (stereo not drawn),inactive: 103%
11,CCc1ccc(-c2cn3nc(CC)sc3n2)cc1,inactive: 72%
12,CCSc1nc2ccccc2c(OCc2ccc(Cl)cc2)c1C(=O)OC,inactive: 88%
13,COc1ccc2c(c1)c1c(c(=O)n(CCc3ccccc3)c(=O)n1Cc1cccc(F)c1)n2C,inactive: 63%
14,CCc1ccccc1NC(=O)c1ccc2c(c1)CCCN2S(C)(=O)=O,inactive: 113%
15,Cc1ccc(-c2onc(C)c2C)cc1S(=O)(=O)Nc1ccccn1,inactive: 82%
16,COc1ccc2c(C)c(CC(=O)NCc3ccccc3Cl)c(=O)oc2c1OC,inactive: 97%
17,CC(C)CN(CCNC(=O)CCN1N=C(c2ccccc2)CCC1=O)CC(C)C,inactive: 82%
18,C/C(=N\NC(=O)c1ccc(N2CCCC2=O)cc1)c1ccccc1,inactive: 103%
19,CN(C)S(=O)(=O)N1CCC(n2c(C(F)(F)F)nc3cccnc32)CC1,inactive: 128%
20,COc1ccc(Cn2c(CO)cnc2SCc2ccc(C)cc2)cc1,inactive: 133%
21,CC(C)(C)OC(=O)N1CCC(c2c(C(=O)N3CCN(Cc4ccccc4)CC3)cnn2-c2cccc(Cl)c2)CC1,inactive: 71%
22,COc1ccc(CCNC(=O)CN(c2ccccc2)S(=O)(=O)N(C)C)cc1OC,inactive: 83%

row,Compound,survival
1,COc1ccc(-c2nc3cc(NC(=O)COc4ccccc4C)ccc3o2)cc1,inactive: 86%
2,CC(=O)N1CCC(N(CCCOC(C)C)C(=O)Nc2ccc(C)c(C)c2)CC1,inactive: 82%
3,CCc1cccc(C)c1NC(=O)CSc1nc2ccccc2nc1Cc1ccccc1,inactive: 68%
4,Cc1ccc(NC(=O)c2oc3ccc(S(=O)(=O)N4CCC5(CC4)OCCO5)cc3c2C)cc1Cl,inactive: 120%
5,O=C(CN1C(=O)CCSc2ccc(S(=O)(=O)N3CCCC3)cc21)Nc1cccc(F)c1,inactive: 59%
6,CCc1c(C)sc2c1CCN(Cc1ccc(C#N)cc1)C2c1ccccc1 (stereo not drawn),inactive: 87%
7,CCOC(=O)c1c(NC(=O)c2cc(-c3ccc(OC)c(OC)c3)on2)sc2c1CCCC2,inactive: 83%
8,CCOC(=O)C(C)NC(=O)c1c2c(nc3ccccc13)C(=O)N(C1CCCCC1)C2 (stereo not drawn),inactive: 94%
9,COc1cc(C(c2c(C)[nH][nH]c2=O)c2c(C)[nH][nH]c2=O)ccc1OC(=O)c1ccccc1OC,inactive: 132%
10,COC(=O)CC1Oc2ccccc2-n2cc(-c3ccc(F)cc3)nc21 (stereo not drawn),inactive: 79%
11,COc1ccc(Nc2nn3c(=O)c4cc5c(cc4nc3s2)OCO5)c(OC)c1,inactive: 141%
12,Cc1ccc(Cl)cc1-n1nnc(-c2nc(-c3ccc4c(c3)OCO4)no2)c1C,inactive: 127%
13,Cc1cccc(N(C)S(=O)(=O)c2cc(-c3cnc(C4CC4)o3)ccc2C)c1,inactive: 143%
14,C=CC[N+]1(CC=C)CCOCC1,inactive: 104%
15,O=C(CCNS(=O)(=O)c1ccc2c(c1)CCN2C(=O)C1CC1)N1CCN(c2cccc(Cl)c2)CC1,inactive: 127%
16,CCOc1ccc(/C=C/C(=O)Nc2ccc3nc(N(CC)CC)cc(C)c3c2)cc1OC,inactive: 83%
17,Cc1ccc(C)c(NC(=S)NC2CC3CCC(C2)N3Cc2ccco2)c1 (stereo not drawn),inactive: 104%
18,CC1CCN(CC(=O)Nc2ccc(F)cc2)CC1,inactive: 112%
19,CCc1ccc(C2c3c(-c4ccccc4O)n[nH]c3C(=O)N2Cc2cccnc2)cc1 (stereo not drawn),inactive: 71%
20,CCC(=O)N1c2ccc(S(=O)(=O)CCC(=O)Nc3ccc(OC)cc3OC)cc2CC1C (stereo not drawn),inactive: 89%
21,CCC(=O)N1CCc2cc(CNS(=O)(=O)c3ccc(CC(C)C)cc3)ccc21,inactive: 71%
22,CCN1CCN(c2ncc3c(n2)CCN(Cc2ccccc2C)C3)CC1,active: -3%

row,Compound,survival
1,Cc1ccc(CS(=O)(=O)c2ncc(Cl)c(C(=O)Nc3nnc(C(C)C)s3)n2)cc1,inactive: 48%
2,COc1ccc(-c2nc(CS(=O)CC(=O)NCCc3ccc(Cl)cc3)c(C)o2)cc1OC (stereo not drawn),inactive: 80%
3,CCc1ccc(-n2nc(CO)c(C(=O)NC)n2)cc1,inactive: 81%
4,CC(C)CCNC(=O)C1CCN(C(=O)c2cc3sccc3n2Cc2ccc(Cl)cc2)CC1,inactive: 86%
5,CCCS(=O)(=O)N1CC(=O)N(c2ccc(C)c(Cl)c2)C(C)(C(=O)NC2CCCCCC2)C1 (stereo not drawn),inactive: 105%
6,COc1cc(CN(C(=O)c2ccccc2F)C2CCS(=O)(=O)C2)cc(OC)c1OC (stereo not drawn),inactive: 83%
7,Cc1cccc(N2CCN(C(=O)Cn3c(-c4cccs4)cc4ccccc43)CC2)c1C,inactive: 85%
8,CC(=O)OC1CC(C)N(C(=O)c2ccccc2)c2ccc(C)cc21 (stereo not drawn),inactive: 101%
9,Cc1ccc2c(CC(=O)Nc3ccc(S(=O)(=O)N4CCCCC4)cc3)coc2c1C,inactive: 98%
10,CN1C(=O)C2(c3ccccc31)N(c1cccc(C(F)(F)F)c1)C(=O)CS2(=O)=O (stereo not drawn),inactive: 54%
11,CCCCNC(=O)CCCN1C(=O)c2ccccc2Sc2ncccc21,inactive: 87%
12,Oc1c(C(c2ccc(F)cc2)N2CCN(Cc3ccccc3)CC2)sc2nc(-c3ccco3)nn12 (stereo not drawn),inactive: 89%
13,Cc1cccc(-c2nc3nc(C)cc(NC(C)c4ccccc4)n3n2)c1 (stereo not drawn),inactive: 88%
14,COc1ccc(C(=O)N(Cc2ccco2)Cc2ccc(C)o2)cc1,inactive: 83%
15,COc1ccc(NC(=O)C2CCCN(S(=O)(=O)c3c(C)[nH]c(=O)[nH]c3=O)C2)c(OC)c1 (stereo not drawn),inactive: 143%
16,O=C(NCc1ccc(F)cc1)C(=O)NCC(c1ccc2c(c1)OCO2)N1CCOCC1 (stereo not drawn),inactive: 88%
17,CNC(=O)c1c(NC(=O)/C=C/c2ccccc2)sc2c1CCC2,inactive: 76%
18,Cc1ccc2nc(-c3ccc(NC(=O)COc4ccc(Br)cc4Br)cc3)sc2c1,inactive: 124%
19,COCCCNC(=O)c1cnc2sc(N3CCCCC3)nn2c1=O,inactive: 68%
20,COc1cc(NS(=O)(=O)c2ccc(NC(=O)c3ccc(Cl)cc3Cl)cc2)nc(OC)n1,inactive: 94%
21,CC(CCc1ccccc1)NC(=O)c1ccco1 (stereo not drawn),inactive: 123%
22,CCOc1ccc(NC(=O)Cn2nnc(-c3nc(-c4ccncc4)no3)c2N)cc1,inactive: 79%
